In PMC4336329 (PLoS ONE, 2015):
The campaign covered roughly 310,000 compounds. About 14,000 (4.5%) showed an effect of 50% or more. Effects have a minus sign here. Some of the results follow. Where a SMILES comes first, the peptide text is derived from it. The star is where a group is joined. Cbz = O=C(OCc1ccccc1)*

These molecules were tested against human ether-à-go-go-related gene (hERG) potassium channel (human, UniProt Q12809) (assay: primary screen, population patch clamp on CHO cells stably expressing hERG).
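Also: peak tail current of the secondary pulse compared with the same well before compound.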

Sequence of human ether-à-go-go-related gene (hERG) potassium channel (Q12809 whole entry, looked up): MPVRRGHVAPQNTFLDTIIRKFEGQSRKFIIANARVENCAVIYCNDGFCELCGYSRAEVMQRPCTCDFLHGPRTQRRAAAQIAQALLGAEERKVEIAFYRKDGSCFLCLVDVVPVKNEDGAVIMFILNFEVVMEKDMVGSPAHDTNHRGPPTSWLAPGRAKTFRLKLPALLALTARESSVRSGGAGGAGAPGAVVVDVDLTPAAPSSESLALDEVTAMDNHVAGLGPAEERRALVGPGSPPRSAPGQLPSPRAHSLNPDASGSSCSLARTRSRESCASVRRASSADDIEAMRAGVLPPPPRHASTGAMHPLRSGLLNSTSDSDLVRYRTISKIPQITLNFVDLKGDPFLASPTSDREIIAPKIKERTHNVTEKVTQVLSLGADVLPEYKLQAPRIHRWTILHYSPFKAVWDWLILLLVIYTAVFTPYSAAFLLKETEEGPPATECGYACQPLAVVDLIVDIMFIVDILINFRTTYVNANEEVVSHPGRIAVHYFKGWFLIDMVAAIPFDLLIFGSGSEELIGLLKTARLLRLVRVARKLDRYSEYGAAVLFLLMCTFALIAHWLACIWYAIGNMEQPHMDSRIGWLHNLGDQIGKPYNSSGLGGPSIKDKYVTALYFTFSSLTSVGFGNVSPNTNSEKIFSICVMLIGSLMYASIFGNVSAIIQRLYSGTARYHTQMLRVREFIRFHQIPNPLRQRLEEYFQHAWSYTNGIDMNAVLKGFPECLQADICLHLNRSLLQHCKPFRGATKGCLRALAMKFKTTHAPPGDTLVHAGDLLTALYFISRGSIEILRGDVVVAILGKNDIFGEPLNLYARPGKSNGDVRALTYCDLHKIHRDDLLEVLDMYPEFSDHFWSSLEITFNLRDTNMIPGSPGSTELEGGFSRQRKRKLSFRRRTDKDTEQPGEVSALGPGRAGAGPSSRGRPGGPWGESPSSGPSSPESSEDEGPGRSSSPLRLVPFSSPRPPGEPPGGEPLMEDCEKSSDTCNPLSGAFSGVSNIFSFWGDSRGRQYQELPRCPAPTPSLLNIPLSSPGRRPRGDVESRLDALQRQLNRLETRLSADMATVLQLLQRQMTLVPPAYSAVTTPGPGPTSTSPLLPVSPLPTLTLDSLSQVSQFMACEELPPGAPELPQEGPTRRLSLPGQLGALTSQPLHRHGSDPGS

Structure (SMILES) | hERG current change (%, negative = inhibition) at 10uM [%]
CC(C)CN(C(=O)COC(=O)CNC(=O)c1sc2ccccc2c1Cl)C1CCS(=O)(=O)C1 (stereo not shown) | -20
COc1cccc(CN2CC(C(=O)N(C)CC3CCOCC3)CCC2=O)c1 (stereo not shown) | 22.4
Cn1ncc([N+](=O)[O-])c1C(=O)N/N=C/c1ccc(F)cc1 | -9.05
COc1ccc(Cc2nnc(SCC(=O)c3ccc(OC)cc3)o2)cc1 | 2.15
Cc1c(C)n(Cc2ccccc2)c2ccc(C(=O)NCCCN3CCOCC3)cc12 | -14.9
Cc1cccc(NC(=S)Nc2ccccn2)c1C | 2.01
COCc1ccc(C(=O)N(C)CC2CCCN(CCc3ccc(Cl)cc3)C2)o1 (stereo not shown) | -78.9
O=S(=O)(Nc1cccc(-c2ccc3nncn3n2)c1)c1ccc(Cl)s1 | -27.4
CCN(CC)S(=O)(=O)c1ccc(OC)c(NS(=O)(=O)Cc2ccccc2)c1 | -15
O=C1N[C@@H](Cc2ccccc2)C(=O)N2[C@@H]1C[C@]1(Br)c3ccccc3N(S(=O)(=O)c3ccccc3)[C@H]21 | -16.5
CCn1c(=NC(=O)c2cccc(N3C(=O)CCC3=O)c2)sc2c(C)ccc(OC)c21 | 4.49
CCCOc1ccc(-c2nc(OCC)c3ccccc3n2)cc1 | 1.62
O=C(NC(=S)Nc1ccccc1N1CCOCC1)c1cccc([N+](=O)[O-])c1 | 17.6
COc1cc(Cl)ccc1OCc1cc(C(=O)N2CC[C@@H]3CCCC[C@H]3C2)no1 | 15.4
O=C(NCc1ccccn1)c1ccc(N2CCCC2)c([N+](=O)[O-])c1 | -9.15
CCc1ccccc1NC(=O)c1ccccc1Sc1ccc([N+](=O)[O-])cc1Cl | 10.8
O=C(O)c1cc(-c2cccs2)nc2ccc(F)cc12 | 13.2
COC(=O)NNC(=O)COc1ccccc1C | 11.3
CCN1CCN(c2ccc(S(=O)(=O)N3CCCCC3)cc2NC(=O)Cc2c(Cl)cccc2Cl)CC1 | -38.6
C=CCC(C)(NCc1ccccc1)c1ccco1.Cl (stereo not shown) | 9.19
Cn1c(=O)c2cc(S(=O)(=O)NCCC(=O)NC3CCCCCC3)ccc2n(C)c1=O | -6.68
COC(=O)C(C)(C(=O)OC)c1ccccc1[N+](=O)[O-] | 7.93
COc1ccc(/C=N/NS(=O)(=O)c2ccc(C)cc2)cc1 | 11.1
CCOC(=O)c1c(-n2cnnn2)sc(C)c1C | -6.65
O=C(Nc1cccc2c1CCCC2)C1CCN(C(=O)NC2CCCCC2)CC1 | 6.54
COc1ccc(NC(=O)CSc2n[nH]c(=O)n2C2CC2)cc1OC | 9.93
CC(=O)c1sc(-c2ccccc2)cc1N | 5.23
CCOc1ccc(/C=C/C(=O)c2ccccc2)cc1 | 7.44

Structure (SMILES) | hERG current change (%, negative = inhibition) at 10uM [%]
O=C(CCN1CCOCC1)Nc1ccc(Br)cc1C(=O)c1ccccc1 | -19.6
Cc1ccc2c(C)c(C(=O)NCCN3CCOC3=O)oc2c1C | 0.131
C/C(CC(=O)Nc1ccc(F)cc1)=N\NC(=O)COc1ccccc1 | -23.4
Cc1ccc(C(=O)Nc2cccnc2Oc2ccc(Cl)cc2)cc1 | -9.13
Cc1ccc2c(n1)sc1c(-c3ccc(Br)cc3)c(C#N)c(N)nc12 | 18.2
COc1ccc(S(=O)(=O)NC(C)C(=O)Nc2ccc3c(c2)OCO3)cc1OC (stereo not shown) | 24.4
COc1cc(-c2nnn(Cc3ccccc3C)n2)cc(OC)c1OC | 3.67
COc1ccccc1NC(=O)C(=O)N1CCCC1 | 14.9
COc1ccc(CCn2c(O)c(C=NCCN3CCCCC3)c(=O)[nH]c2=O)cc1OC | -13.6
CC1Sc2ccc(S(=O)(=O)CCC(=O)N3CCCC3)cc2NC1=O (stereo not shown) | 16.4
Cc1cc(C(=O)NC2CCCc3c2cnn3-c2ccc(C(C)(C)C)cc2)nn1C (stereo not shown) | 10.9
CN(C)C=O.Cc1ccc(S(=O)(=O)N(C)C)cc1NC(=S)Nc1ccc2[nH]c(=O)[nH]c2c1 | 76.2
Cc1ccc(S(=O)(=O)N(C)CC(=O)OCC(=O)Nc2ccccc2)cc1 | 14.5
COC(=O)C1CCCN1C(=O)C1CCCN1C(=O)CNC(=O)OCc1ccccc1 (stereo not drawn) (Cbz-Gly-Pro-Pro-OMe; configuration not given here) | 12.3
COc1ccc2c(c1)C(C)=CC(C)(C)N2C(=O)CN1C(=O)CCC1=O | -3.34
CCOC(=O)c1c(-c2ccccc2)csc1NC(=O)c1cc(-c2ccccc2OC)on1 | -1
Cc1ccnc(N2C(=O)C3C4CC(C(Br)C4Br)C3C2=O)c1 (stereo not shown) | 15.1
COc1ccc(C(C(=O)NCc2ccccc2)N(Cc2ccco2)C(=O)c2cnccn2)cc1 (stereo not shown) | -16.1
Cn1c(CSCc2ccccc2Cl)nnc1SCC(=O)Nc1nccs1 | -12.3
COc1ccccc1CNC(=O)CSc1nc(=O)n(Cc2ccncc2)c2c1CCC2 | 3.68
Cc1ccc(C)c(C(=O)COc2ccccc2[N+](=O)[O-])c1 | 1.88
Cc1ccc(S(=O)(=O)N2CCCCC2C(=O)O)s1 (stereo not shown) | 20.8
Cc1ccc(C)c(NC(=S)NC(C)C(c2cccs2)N2CCOCC2)c1 (stereo not shown) | 8.4
Cc1ccc(S(=O)(=O)N2CCCCC2)cc1NC(=O)CN1CC=C(c2ccccc2)CC1 | -12.5
COc1ccccc1CC(=O)Nc1ccc2c(c1)CCC2 | 18.9
O=C(Nc1ccnc(-c2cccnc2)n1)c1ccc(Cl)cc1 | -17.6
CCCCOC(=O)c1cc(C)nc2ccc(Br)cc12 | 10.7
